Hit rate of the full screen: of about 150,000 compounds, about 540 (0.36%) showed an effect of 50% or more. Some of the results follow.
Each molecule was assayed on Plasmodium falciparum (assay: Primary screen in NF54 nanoGlo assay, in single point, at 2uM, 72h; a lower Z score goes with more inhibition). Conditions: timepoint 72 hour.
Assay type: functional, Erythrocyte

Row | SMILES | % Inhibition [%] | Z score
1 | N#Cc1ccc(N2CCN(C(=O)C(F)F)CC2)cn1 | -13 | 1.3
2 | CNS(=O)(=O)C[C@H]1CCCN1C(=O)CC1CC(c2ccccc2)C1 (stereo not given in full) | -14 | 1.43
3 | COc1ccc(N2C(=O)N[C@@H]3C[C@]2(C)Oc2ccc(Cl)cc23)c(OC)c1 | 0 | 0.02
4 | COc1cccc(CN2CC=C(C(=O)NCc3ccc4c(c3)OCO4)CC2)c1 | -8 | 1.29
5 | NC(=O)c1cccnc1N1CC[C@@]2(CCCN(CCC3CCCCC3)C2)C1 | 11 | -1.94
6 | O=C(NC1(c2ncon2)CCOCC1)c1ccc(Cl)cc1 | -3 | 0.31
7 | O=S(=O)(c1ccc(Cl)cc1)N1CC2CC3C=CC2(C1)O3 (stereo not given) | -12 | 2.32
8 | Cn1cncc1Cn1ccc(-c2cccc(-c3nccc4occc34)c2)n1 | -8 | 1.05
9 | Cc1ccc(C(=O)Nc2ccc(C)n(CC(=O)NCc3ccncc3)c2=O)cc1 | -9 | 1.22
10 | Nc1ncc(C(=O)NC2(C3CCCCC3)CC2)s1 | 13 | -1.66
11 | COc1ccc(CC(=O)Nc2ccc3c(c2)C(N2CCN(C(C)C)CC2)=Nc2ccccc2O3)cc1 | -9 | 1.08
12 | Cc1cccc(CN(CCc2c[nH]c3ccccc23)Cc2nc(C(=O)N[C@@H](C)c3ccccc3)co2)c1 | -7 | 0.97
13 | CCc1ccnc(C(=O)N2CC[C@H](c3ncccn3)C2)c1 | -10 | 1.27
14 | CCC(O)CCNC(c1ccc(OC)c(OC)c1)C(F)(F)F (stereo not given) | -13 | 1.53
15 | Cc1cc2n(n1)C[C@@](C)(C(=O)NCc1ccc(Cl)cc1)N(Cc1ccc(Cl)cc1)C2=O | -2 | 0.36
16 | CCC(C)N(CC(=O)N1CCc2sccc2C1COc1ccc(C)cc1)C(=O)Nc1ccc(C)cc1 (stereo not given) | 8 | -1.36
17 | Cc1ccnc(OCC(=O)NCCc2ccccc2)n1 | 0 | 0.03
18 | CC(=O)N1C[C@H]2CC[C@@H](C1)N(C(=O)c1c(F)ccc(C)c1Cl)C2 | 2 | -0.39
19 | O=C(Nc1cn[nH]c1)Nc1ccnn1C1CCCC1 | 4 | -0.7
20 | C1CN(CC2OCC3(CO2)COC(CN2CCOCC2)OC3)CCO1 (stereo not given) | 7 | -1.17
21 | CCn1cc(S(=O)(=O)N2CCC3(CCC(=O)N(C(C)C)C3)CC2)cn1 | -5 | 0.59
22 | CCOC1CC1C(=O)N1CCC(c2nc(-c3ccccc3)no2)CC1 (stereo not given) | 6 | -0.8

Row | SMILES | % Inhibition [%] | Z score
23 | Cc1cccc(-n2ncc3c2CCC[C@@H]3NC2CCOCC2)c1C | -9 | 1.46
24 | O=C(C1CCCC1)N(Cc1ccccc1)c1nc2c(s1)CCCC2 | 2 | -0.25
25 | Cc1ccc(NC(=O)N2Cc3nc(C)n(C)c(=O)c3C2)c(F)c1 | -7 | 1.34
26 | CC(C)(C)OC(=O)N1CCC(CCOS(C)(=O)=O)CC1 | 4 | -0.52
27 | CC1(C#N)CN(C(=O)c2ccc3c(c2)C(C)(C)CO3)C1 | 7 | -0.78
28 | Nc1cc(S(=O)(=O)c2ccc(Cl)cc2)ccc1Cl | 0 | -0.02
29 | COCC1(C(=O)NC(c2ccc(F)cc2)[C@H]2C[C@@H](O)C2)CCC1 (stereo not given in full) | 0 | -0.04
30 | CCOC(=O)NCC(=O)Nc1ccc(Br)cc1 | 11 | -1.15
31 | Cc1ccc([C@H](NC2CCN(C)CC2)c2cccnc2)cc1C | 5 | -0.64
32 | CC1OCCC1(O)CNC(=O)c1csnn1 (stereo not given) | -1 | 0.17
33 | O=C(N[C@@H]1[C@@H]2CCO[C@@H]2[C@@H]1C1CCCC1)c1cnc(C2CC2)[nH]c1=O | -4 | 0.67
34 | COC1CCN(C(=O)C2CC3CCCC(C2)C3=O)CC1 (stereo not given) | -3 | 0.45
35 | COC(=O)C1(CS(=O)(=O)N2CC[C@H](N3CCC3)C2)CCC1 | -10 | 0.9
36 | O=C(CN1C(=O)CCC1=O)Nc1sccc1-c1nc2ccccc2s1 | -3 | 0.46
37 | CCc1cc2c(N3CCC(c4cc(N)[nH]n4)CC3)nc(C)nc2s1 | -1 | 0.14
38 | CCc1ccc([C@@H]2CCCN2Cc2c(C)nnn2CC)o1 | -4 | 0.5
39 | Cc1ccc(-c2ccnn2C)cc1NC(=O)c1cscn1 | 32 | -4.65
40 | COc1ccc([C@@]2(C(=O)NCc3ccc4nsnc4c3)CC2(C)C)cc1 | -1 | 0.2
41 | NC(=O)C(NC(=O)Cc1ccccc1F)C(N)=O | -12 | 1.1
42 | CC(C)Cc1ccccc1CNC(=O)N[C@H]1CCC(=O)N(C)C1 | 4 | -0.61
43 | CCOC(=O)[C@@H]1CCCN1S(=O)(=O)N1CCN(c2cccc(Cl)c2)CC1 | -17 | 2.61
44 | Cc1nnc(N2CC(C#N)C3(C2)C(=O)Nc2ccccc23)c(C#N)c1C (stereo not given) | -6 | 0.61

Row | SMILES | % Inhibition [%] | Z score
45 | CCCc1cc(C(=O)NCc2nc(-c3ccccc3NC(=O)[C@@H]3CCCO3)oc2C)n(C)n1 | -4 | 0.74
46 | COc1nc(NCC2CCN(C(C)=O)CC2)ncc1F | -6 | 1.15
47 | O=C(CCc1ccon1)NCc1cc(C2CC2)ccc1F | -12 | 2.16
48 | CCc1ncnc(O[C@H]2CCN(S(=O)(=O)CCC(F)(F)F)C2)c1F | 6 | -1.01
49 | Cc1cc(C)c(C(=O)N2CCC[C@H](N(C)Cc3ccccc3)C2)o1 | -11 | 1.62
50 | C#CCCC(=O)NCCCC1CCCCC1 | -24 | 2.81
51 | COc1cccc(C(=O)N2CCOc3ccc(CN4CCCC4)cc3C2)c1 | -6 | 1.12
52 | COc1cccc(-c2n[nH]c(CC(C)C)c2NC(=O)c2ccccc2Cl)c1 | -11 | 2.04
53 | Cc1ccc(-n2nc(-c3ccccc3)nc2C[C@H]2CCS(=O)(=O)C2)cc1C | 5 | -0.73
54 | CCC[C@H](NC(=O)Nc1ccc(OC)c(C(=O)N(C)C)c1)c1nccn1C | -11 | 1.64
55 | Cc1cccc(-c2nnc3c4ccc(Cl)cc4nc(N(C)Cc4ccco4)n23)c1 | 40 | -3.9
56 | FC(F)(F)C1CCCC(c2nnc(-c3cccnc3)o2)C1 (stereo not given) | -8 | 1.28
57 | CC(=O)N[C@H]1CN(C(=O)CCCS(N)(=O)=O)C[C@@H]1c1ccc(C)cc1 | -4 | 0.54
58 | COc1ccc(CC(=O)NCc2cc3n(n2)CCN(S(C)(=O)=O)C3)cc1 | -13 | 1.89
59 | Cc1noc(C)c1S(=O)(=O)Nc1ccc(F)cn1 | -9 | 0.91
60 | O=C(CCNC(=O)c1cncc(Br)c1)Nc1cccnc1 | -4 | 0.46
61 | CCNC(=O)CNc1nc(C(F)(F)F)cs1 | -5 | 0.6
62 | CCc1cc(N2CC(n3nc(C)cc3C)C2)n2nccc2n1 | -7 | 1.3
63 | Cc1ccc2nc(-c3ccc(N4C(=O)C[C@H](N5CCCCCC5)C4=O)cc3)sc2c1 | -9 | 1.68
64 | COc1cnc(NC(=O)NC2CCOC2C2CC2)nc1 (stereo not given) | 21 | -2.5
65 | CN(C)c1ccc(NC(=O)COc2ccc3ccccc3c2)cc1 | -5 | 0.73
66 | CCCCn1nc(Cc2cccnc2)nc1[C@H](C)n1nc(C)cc1C | -3 | 0.43

Row | SMILES | % Inhibition [%] | Z score
67 | O=C(NCc1cncc(-c2ccoc2)c1)c1ccccc1Br | 17 | -2.2
68 | COc1ccc(-c2cnc3ncnn3c2N2CCN(C)CC2)cc1 | -3 | 0.55
69 | CC1=C(c2ccc(F)cc2)S(=O)(=O)N=C1N1CCN(c2ccccc2F)CC1 | -6 | 0.82
70 | CCc1ccc([C@@H]2CN(C(=O)c3ccnc(C#N)c3)CCO2)cc1 | 15 | -1.92
71 | O=S(=O)(NCc1ccc(N2CCCC2)cc1)c1cccs1 | -2 | 0.45
72 | O=C(O)c1cc2cc(-c3ccc(Cl)cc3)ccc2[nH]c1=O | -10 | 1.29
73 | Cc1nc(-c2cc(S(=O)(=O)NCc3cccc(C(F)(F)F)c3)c(C)s2)cs1 | 16 | -1.85
74 | Cc1ncsc1CNC[C@H]1CCCn2cc(C(C)(C)C)nc21 | -10 | 1.46
75 | C[C@H](OC(=O)Cc1ccc(F)cc1F)c1ccccn1 | -10 | 0.96
76 | O=C(NCc1ccc2c(c1)OCO2)C1CC(c2ccccc2)CN(Cc2ccccc2)C1 (stereo not given) | 6 | -0.73
77 | COc1csc(C(=O)Nc2ccc(N(C)C)cn2)c1 | -13 | 1.93
78 | CCc1nc(CNc2cc(C(=O)N3CCOCC3)ccc2C)cs1 | 4 | -0.72
79 | COC[C@H](C)NC(=O)CCc1ccccc1Cl | -6 | 0.93
80 | C[C@H](OC1CCCCCC1)C(=O)NS(=O)(=O)c1cccnc1 | -17 | 3.32
81 | CCOc1ncc(NC(=O)c2cccc(OC)c2OC)c(OCC)n1 | -13 | 2.48
82 | Cc1nc([C@H]2CCOC2)cc(N2CCN(Cc3ccccc3F)C(=O)C2)n1 | -13 | 1.64
83 | OC1CCCN(Cc2cc(F)cc3c2OC(c2ccsc2)OC3)C1 (stereo not given) | -4 | 0.34
84 | C=C(C)CN(CC)c1nn2cc(C(C)(C)C)nc2s1 | -3 | 0.44
85 | COc1nc(-c2cccc(C(F)(F)F)c2)n(-c2cccc(NC(=O)c3ccc(C(F)(F)F)cc3)c2)n1 | -5 | 0.64
